B1: chr11:74329583:74329584:+_ENSG00000077514_ENST00000263681|hu_mus|motif|central (ssRNA)
RNA: GGGAGUUCUACAGUCCGACGAUCGGAAGAUGGGGAUUCUGCAGGAGCUCUGGGGACUGCAGCUGCACACUGUAUGGCACGGAACUUGCUGCAGUUCUGCAAAUUGCUUUUAAGGAUGUCAUAGUCGGUAUUGAACAGAGGCCCCAACAGAGGAUUGAGCAUCA
B2: chrX:140365796:140365797:-_ENSMUSG00000031285_ENSMUST00000033642|mus_mus|mus_mus_mus_hu_False|18_108 (ssRNA)
RNA: GGGAGUUCUACAGUCCGACGAUCCUUCUCAUUACUUAGUGCCUGCAAGGUUCUGGUUCGGUAGAAGCUACAGUGGGCGCUGUGAGUGGGGCUAGGCAACCCAUUCAUCCGGGAGCCUCUCAUAUUUCUGGAUGUCUUAUCUCUCAACAGAGGAUUGAGCAUCA
B3: chr3:179287964:179287965:+_ENSG00000136518_ENST00000429709|hu_hu|hu_hu_hu_mus_True|48_108 (ssRNA)
RNA: GGGAGUUCUACAGUCCGACGAUCCUUUAGAGGUGAAAUGGCCUCCAUGUUCUCCCUGGGCACGCGGAGGGCAUUGGUGUCUAUGUAGUAGGUGGGACCGCCCUGCUUGCCUUUGUCACCAUCAAUCUCCAUCAUUGUACUUCCCAACAGAGGAUUGAGCAUCA
B4: 13335207_13337456_1872_CDS_ENSMUSG00000020576_ENSMUST00000042953|mouse|control|control (ssRNA)
RNA: GGGAGUUCUACAGUCCGACGAUCGCUGUCAAUGUCUAUGUCACCUGGUAAGGUAAAUCUGCCAUCAUCCACACCCUUUCCUAUGGCGACGAGAGCCUCCAGGUCUGUGCCUUUCAAGCCAUACUGCAGCAGUUCCUUGGCAGCCAACAGAGGAUUGAGCAUCA
B5: 41075646_41075766_6519_CDS_ENSG00000124486_ENST00000378308|human|control|control (ssRNA)
RNA: GGGAGUUCUACAGUCCGACGAUCAAUAAUCUGAUGAGGUCUGGUGGUGAUAGCAAGCUCUGAUAUAUAUCUUAUCAACUCAUCAUCUUGGUCUAUUGUGUCCAUUCGUUCAUAAAAAAGUAUAUAAGCAUUCCACCACCUUUUCAACAGAGGAUUGAGCAUCA
B6: chr19:7348912:7348913:+_ENSMUSG00000024968_ENSMUST00000066646|mus_mus|FALSE|FALSE (ssRNA)
RNA: GGGAGUUCUACAGUCCGACGAUCGCGGAGCAAUGUGGGAGCUGUGGGCAGAGGUGGCCUCAGCAGCGGGGGUGGCUGGGAAAGCGAGGUGGGCGGUGGAGGUGGGGGCGGUGCAGGGGGUACUGAUCGGGGUACUGAUGUUGACAACAGAGGAUUGAGCAUCA
B7: chr3:38534408:38534409:+_ENSG00000114739_ENST00000352511|hu_hu|FALSE|FALSE (ssRNA)
RNA: GGGAGUUCUACAGUCCGACGAUCUUCAAGCAGCAAAACCCCAACUUAGCAGAUCUAAUUUCAAACUUGACACUCAUUUCUAAAAUUACCACAGUAAAAAGGAACAAAGAUCCACUGCAAAUGAAUGAACUAUGAUACAAUGUUCAACAGAGGAUUGAGCAUCA
B8: chr4:76721835:76721836:+_ENSG00000138768_ENST00000264904|hu_mus|FALSE|FALSE (ssRNA)
RNA: GGGAGUUCUACAGUCCGACGAUCGUUUGGCUGGGGUUUCUGAGACGCUCUGGAAUAUAACUCAUGUUUGCUAAUAAAUCCUAGUUUCUCUAUGAAAUUCUCUUUGCCAAUCCUCUUCUCUAUUAGUUGCUUUAGUUUCUCUUUCAACAGAGGAUUGAGCAUCA
B9: 57394321_57396401_707_CDS_ENSMUSG00000032306_ENSMUST00000034856|mouse|control|control (ssRNA)
RNA: GGGAGUUCUACAGUCCGACGAUCCAGCUGCAGCAAGAGCUUCCCAUAAAUGUCCUCCAUAUUGUUUCCGUCAAAUACUUGCUGGGAGAUCCGUUUCACCAACAGGUUAAGCUGCUCCACCACCACCUUCUUCUCACUCUUCAUCAACAGAGGAUUGAGCAUCA
B10: chr17:45747064:45747065:+_ENSG00000108424_ENST00000290158|hu_hu|hu_hu_hu_mus_True|18_28 (ssRNA)
RNA: GGGAGUUCUACAGUCCGACGAUCGCCCACAGUCCACGCUGUUGUGUCUCGAACAACUACACUGGGGUCUUUCAUUAGUUCUAUUAGGGUGGGCAUAGCCUGUAUGACUAGUGGUUUGAGCUGACUGGGCUCUGGUCCUUCCAACAACAGAGGAUUGAGCAUCA
B11: chr14:66974463:66974464:+_ENSMUSG00000022044_ENSMUST00000074523|mus_hu|mus_mus_mus_hu_False|18_108 (ssRNA)
RNA: GGGAGUUCUACAGUCCGACGAUCUUGUAGGAUGAUUUAUUCAGGGGAUCGGCCAGGAAGCAGGAGCAGAACAAGGACACCAGCGGGAGCUCCUUCAUCUUCUCUUUGUAGGCAGCAAGAGUCAUGUUUCUGGGAUCUGGUGGCCAACAGAGGAUUGAGCAUCA
B12: chr2:73037555:73037556:-_ENSMUSG00000027108_ENSMUST00000028517|mus_mus|motif|central (ssRNA)
RNA: GGGAGUUCUACAGUCCGACGAUCAAAGGCAUUCCCCAAGCCCUGCCCAUUGUGAGCUCCUUUUACAAGGCCAGCAAUAUCCACGGCAUUUAGGAAAGCAGGAAUCUUGCUUGCUGGUUUAUGGUACUGGCAAAGAAAGUCGAACAACAGAGGAUUGAGCAUCA
B13: chr14:27472611:27472612:+_ENSMUSG00000021877_ENSMUST00000022429|perfect_dup|FALSE|FALSE (ssRNA)
RNA: GGGAGUUCUACAGUCCGACGAUCUUCCAGAAGCAUUUUCUGCAGCACAGCUGCUCCUUCCUGGAUUCUUUCACGAUCAUUGCUAUCUACCACAAAAAUGAGACCCUGGGUAUUCUGGAAGUAAUGCCUCCAGAGAGGCCUAAUCAACAGAGGAUUGAGCAUCA
B14: chr5:77717642:77717643:+_ENSG00000085365_ENST00000538629|hu_hu|FALSE|FALSE (ssRNA)
RNA: GGGAGUUCUACAGUCCGACGAUCAACCGCUCUUGCAGAAUCAACACAAAACCAAGCCAAGCAUCCGAAGAUAUUUAGAAACAGUGUUACUGCAUGGAACAUCCACAAGUAGUACAUAAGCUUUACUGUCUUUUGGAAUUCUACCAACAGAGGAUUGAGCAUCA
B15: chr6:41757443:41757444:+_ENSG00000214736_ENST00000398881|hu_mus|hu_hu_hu_mus_False|1_108 (ssRNA)
RNA: GGGAGUUCUACAGUCCGACGAUCGAACUGUCUGCUGGCAACAUCUCAGCCGACACUGGGGGAUGGGGGGGCAGUGGGGGGGGGUUCAGGCAAGGAGAGGGAGUCAACUUCAGCUGCCACUCAGGUAGGAUCUUGUGGGGCACACAACAGAGGAUUGAGCAUCA
B16: 72663996_72664116_663_5pUTR_ENSMUSG00000022883_ENSMUST00000023600|mouse|control|control (ssRNA)
RNA: GGGAGUUCUACAGUCCGACGAUCAGGCGAACAACAAAGAGCCUAAACCGAGGAGCAGUUGUGCGGUUUCCUGCCUCCACAGUCCUGCUGAGCCUCCCGGCGUGCGCCUCCACAGCGUGUGCCCUGGCGCCGCUGCGCGGCGAUCAACAGAGGAUUGAGCAUCA
B17: 31604843_31604963_1455_CDS_ENSG00000170456_ENST00000546299|human|control|control (ssRNA)
RNA: GGGAGUUCUACAGUCCGACGAUCCCACAAAAGGAAAACUAUGGUUCUUUUUACUUUGUCAAAGUUCUGCAUCUGUUCCCGGUUGGUCAGCCAGGAUUCCAUGUCCUGGGCAGUCUGAAUGACAAAUGCUUCGUAAUCUGCAAACAACAGAGGAUUGAGCAUCA
B18: chr9:95013113:95013114:-_ENSG00000196305_ENST00000443024|hu_hu|hu_hu_hu_mus_False|18_88 (ssRNA)
RNA: GGGAGUUCUACAGUCCGACGAUCCUCAGUCAGAAAGGGCGUGUAAGGAGCCAUAAGUCUGCACAGAGAAAGCAGGACACUGAACAGUGUCUCCAGAGCCAUGACACAGUCUUCCACCCCAUUUUCACCCUUUAACCUCCUCCUCAACAGAGGAUUGAGCAUCA
B19: chr1:229634031:229634032:-_ENSG00000069248_ENST00000261396|hu_mus|FALSE|FALSE (ssRNA)
RNA: GGGAGUUCUACAGUCCGACGAUCCUGGUGAAUCUUUCCUGAGCUUUCAGGAAUCAAUCGAACCAACUGGCUCCCCACGGAGGACAGGAUGAAACUUCCUCCCUGCACUGCUGUCAGGAACCUGCACAUCUUCUCGCCUCCCAACAACAGAGGAUUGAGCAUCA
B20: 87797487_87800839_256_3pUTR_ENSMUSG00000020483_ENSMUST00000020775|mouse|control|control (ssRNA)
RNA: GGGAGUUCUACAGUCCGACGAUCUGCCUUCCGGUCAGACAUCGUGACACGUCACGCAGGCGAGUCCGCACAGGCCCCUGGGGAGCAGCGCUGGGCUGAAGCAAAGCUCGAGCAGGGGCGGUGUCCCCUGGGCUCGUCCUGCAGCAACAGAGGAUUGAGCAUCA
B21: chr1:58468927:58468928:-_ENSMUSG00000026034_ENSMUST00000148330|mus_mus|mus_mus_mus_hu_False|8_18 (ssRNA)
RNA: GGGAGUUCUACAGUCCGACGAUCAAUUACUGAAAAAGAUGUUCAUUACCUUAGCUAUGUACUUAAUGAACCAAAUUACCCAAACAAAAUAAACAUGGCAAUAUAAAAAUGUUAAGAAAAUAACUUAAUUAAAAGCUUAACUUACAACAGAGGAUUGAGCAUCA
B22: chr1:46159212:46159213:+_ENSG00000159596_ENST00000372025|hu_mus|hu_hu_hu_mus_True|1_48 (ssRNA)
RNA: GGGAGUUCUACAGUCCGACGAUCUCUGAUCCCUCCCAAGAAAGCUAGGAAACCGGCUCCAUAAGCCAUCUGAGUGAAAGCUAGGACGGGAAUAUAAGACUUUGUUAUUACCAUGAGAAGUGGGGGAGCAGUAAAGGGGAUUAGCAACAGAGGAUUGAGCAUCA

The list shows a part of the results.

The target of this assay is T1, UNK ZnF1-3 (human, UniProt Q9C0B0 31-174).
T1 sequence: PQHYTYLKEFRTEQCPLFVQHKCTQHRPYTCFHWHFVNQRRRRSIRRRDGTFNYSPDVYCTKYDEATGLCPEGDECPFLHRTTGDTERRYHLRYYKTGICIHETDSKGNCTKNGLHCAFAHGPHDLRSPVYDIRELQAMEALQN
Kind of assay: nsRBNS (natural sequence RNA bind-n-seq); RBNS binding buffer (assumed for nsRBNS): 25 mM Tris pH 7.5, 150 mM KCl, 3 mM MgCl2, 0.01% Triton X-100, 500 ug/ml BSA, 20 U/ml SUPERase-In, 4 C; UNK is unkempt and MSI1 is Musashi-1; names of the RNAs are library labels; protein concentration not given here; high values mean tight binding.
With B1, the binding signal is 0.806 enrichment R. As for B2, the figure is 0.83 enrichment R; as for B3, 0.804 enrichment R; as for B4, 1.15 enrichment R.

B5 gave a binding signal of 0.762 enrichment R. B6 returned a binding signal of 1.49 enrichment R.

B7 displayed a binding signal of 1.53 enrichment R. Turning to B8, the binding signal is 0.486 enrichment R. B9 yielded a binding signal of 0.974 enrichment R.

In the case of B10, the binding signal was 0.717 enrichment R.

For B11, the binding signal turned out to be 2.44 enrichment R. B12 came in with a binding signal of 1.19 enrichment R. For B13 the value was 0.885 enrichment R. With B14, the binding signal came out at 1.09 enrichment R. As for B15, the figure is 1.55 enrichment R; as for B16, 0.662 enrichment R; as for B17, 0.679 enrichment R. Molecule B18 came in with a binding signal of 1.3 enrichment R. For B19 the value was 0.798 enrichment R; for B20, 0.481 enrichment R; for B21, 0.866 enrichment R.

As to B22, the binding signal is 1.45 enrichment R.

These data come from publication PMC12136788.
